Experimental data as given in publication PMC12136788.
The other results are listed elsewhere or left out.

B1: chr13:48919227:48919228:+_ENSG00000139687_ENST00000267163|hu_mus|FALSE|FALSE (ssRNA)
RNA: GGGAGUUCUACAGUCCGACGAUCCUUGGUACUGGUAUCGAUUUCUUUUAAUAAGUCAAAGAAUUUAUAGACACUGGUUUCUAUGCUUUUCUGUAGCUCAGUAAAAGUGAAUGGCAUCUCAUCUAGAUCAACUGCUGCGAUAAACAACAGAGGAUUGAGCAUCA
B2: 9583757_9588413_1475_CDS_ENSG00000119203_ENST00000238112|human|control|control (ssRNA)
RNA: GGGAGUUCUACAGUCCGACGAUCUAUGUGAACUUCAUCGUUAUCUUCAUAUUCUCGAAUCAGUGCUGCUUUCAAUCUGGCCAUUUCAUUCUGUUCUCCAUGGACUAAAAUCACAUGAGGCGGUUUCAAAGCACGAAUAAAUUCCAACAGAGGAUUGAGCAUCA
B3: chr1:244855233:244855234:+_ENSG00000121644_ENST00000302550|hu_mus|hu_hu_hu_mus_True|78_108 (ssRNA)
RNA: GGGAGUUCUACAGUCCGACGAUCCAUUAAAUGAUAAGCGUUGCCCUUAUACUCUUUUCCCAGUUCUUCUACAAUUUUCUCUAUAUCAUCUUCUAGAAAGUCCGUACUUCCUAGAACAACAGCUUCUUUAAAUUUAAAUGUUUCCAACAGAGGAUUGAGCAUCA
B4: chr4:115894766:115894767:+_ENSMUSG00000028698_ENSMUST00000030464|mus_hu|mus_mus_mus_hu_True|8_88 (ssRNA)
RNA: GGGAGUUCUACAGUCCGACGAUCUUCCACACGGAAAUGUACUUCGGGUUUCCAACGGGCCAGUACCAGUCCGGCCAAACUACCCGAACAGGGUCCUCCCCCUCUCUCCUACAGAACACAACAAAAUAACAAAAUACUUUCAAGCAACAGAGGAUUGAGCAUCA
B5: chr1:39494447:39494448:+_ENSG00000168653_ENST00000372967|hu_mus|hu_hu_hu_mus_False|38_38 (ssRNA)
RNA: GGGAGUUCUACAGUCCGACGAUCGCACCGAGCGGCGUUCUUAUAGGGCUGUUCUGCGCUUAGGAACAUAAAGUGCCGGUCCAGGCUGAUGCCCAGCCUUUUCUGGAUGUCAAGGAAAGGCAUGGCUCUGCAGUGCCCUUGUCACAACAGAGGAUUGAGCAUCA
B6: chr4:17845017:17845018:+_ENSG00000109805_ENST00000514176|hu_mus|hu_hu_hu_mus_False|28_108 (ssRNA)
RNA: GGGAGUUCUACAGUCCGACGAUCGCUUCCUAACUUAGUAUCUUCAUUAAGGAACUCUGCAAGGUUAAGUUUACUUUUCUGUAGCGCAGCUGUUUUGGCUCGUCUGGUAGUCUCAUCCUUCAUUUCUGAUGGUGGUUCAUGAUCCAACAGAGGAUUGAGCAUCA
B7: chr1:65854986:65854987:+_ENSG00000116675_ENST00000371069|hu_hu|FALSE|FALSE (ssRNA)
RNA: GGGAGUUCUACAGUCCGACGAUCGAGGAUGCUGGGAUUGACAUCUUUUGUGCAGUAAUGUUCCCAUGGUGGAGUUAAGUCUAUUACUUUGUCAUGGGGCUGUAGUUCUACAUCCAGUGUCACCUGAAAUAGCUGAGGAUAUUUCAACAGAGGAUUGAGCAUCA
B8: chr1:185089287:185089288:-_ENSG00000121486_ENST00000367506|hu_mus|FALSE|FALSE (ssRNA)
RNA: GGGAGUUCUACAGUCCGACGAUCUGGCGGCAUCUGGCCUUCUGAUUGUGCUCCAGUGUAAGUGGGGGUGCUGUACUUUAGCAAGAUGGAUUUAAACUGCAUCAGAGGGGCAUCGGUACGGAUGCCCAUUGGGUCAAAGUGAGUCAACAGAGGAUUGAGCAUCA
B9: 161402982_161417958_180_3pUTR_ENSMUSG00000061778_ENSMUST00000112247|mouse|control|control (ssRNA)
RNA: GGGAGUUCUACAGUCCGACGAUCUAUGUCUCCAGUAUAAGUAACUUUCAACCCAGUUAUCAUCUUGCUGAAGCCUUUCAACAUCACGUGAAUCAUAUUUUUCUGACUUUUCUGUCACAUACUCAGCUUCGAAUCUCCGCCGGGCAACAGAGGAUUGAGCAUCA
B10: chr2:158593201:158593202:-_ENSG00000115170_ENST00000434821|hu_hu|motif|central (ssRNA)
RNA: GGGAGUUCUACAGUCCGACGAUCUGAAAUCUUUGCUUCUAAAUCAGUAAUAUAUUCGGUGGUGUCACGUGGGUAAUGGCGGAAUACGUUCUGCAUAUGAACUGAAAAAAAGUUACAGUCUACACACAUACAAAUGUGAAGCACCAACAGAGGAUUGAGCAUCA
B11: chr12:105536279:105536280:+_ENSG00000136051_ENST00000332180|hu_mus|hu_hu_hu_mus_True|8_48 (ssRNA)
RNA: GGGAGUUCUACAGUCCGACGAUCAGCACUGAACAUGUAAUGUAAUCUGGCUGCAUCGACAGCAUUUUCAUAUACAUCAUCUAAAUAAAUUGGGAAGACAGCGCGAUGCCAGUAUAAAAAACAGCAGUCACAUUGUGCUUGGACCAACAGAGGAUUGAGCAUCA
B12: chr14:90871172:90871173:+_ENSG00000198668_ENST00000553542|hu_mus|FALSE|FALSE (ssRNA)
RNA: GGGAGUUCUACAGUCCGACGAUCACCAAUACAUGCAGACUUUGUGUGUGGACAGAGGGGCUUCUGACAUUCAGCUUCGCUAGAUACAAACAGAAUGAAGAAAUGAACUUUUUCUUUUUUUUUCUUUUUUUUGUAAGAGGUAAGCAACAGAGGAUUGAGCAUCA
B13: chr16:94690093:94690094:+_ENSMUSG00000040785_ENSMUST00000117648|mus_hu|mus_mus_mus_hu_True|8_38 (ssRNA)
RNA: GGGAGUUCUACAGUCCGACGAUCGGGCUGGGAUGACGGACACACAGCCUCGAUUCCAGGGGGAAAAAGUCUUAGUCGAUACUAAUUAAAAAGUGUUUUUAUAAUUGGAAAAUCAGAUUACAUCUAUUUGAAUCAUAAAGCAAACAACAGAGGAUUGAGCAUCA
B14: chr14:66974463:66974464:+_ENSMUSG00000022044_ENSMUST00000074523|mus_hu|mus_mus_mus_hu_False|48_68 (ssRNA)
RNA: GGGAGUUCUACAGUCCGACGAUCUUGUAGGACGACUUAUUCAGGGGAUCGGCCAGGAAGCAGGAGCAGAACAGAGACACCAGCGGGAGUUCCUUCAUCUUCUCUUUGUAGGCAGCAAGGGUCAUGUUUCUGGGAUCUGGUGGCCAACAGAGGAUUGAGCAUCA

What follows are binders tested against T1, UNK ZnF1-3 (human, UniProt Q9C0B0 31-174) (assay: nsRBNS (natural sequence RNA bind-n-seq); RBNS binding buffer (assumed for nsRBNS): 25 mM Tris pH 7.5, 150 mM KCl, 3 mM MgCl2, 0.01% Triton X-100, 500 ug/ml BSA, 20 U/ml SUPERase-In, 4 C; UNK is unkempt and MSI1 is Musashi-1; names of the RNAs are library labels; protein concentration not given here; high values mean tight binding).
T1 sequence: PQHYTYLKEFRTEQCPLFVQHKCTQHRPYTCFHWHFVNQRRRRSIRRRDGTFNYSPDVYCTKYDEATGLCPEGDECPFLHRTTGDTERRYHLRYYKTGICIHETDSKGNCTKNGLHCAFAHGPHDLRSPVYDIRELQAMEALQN

| Binder | binding signal [enrichment R] |
| --- | --- |
| B1 | 0.953 |
| B2 | 1.22 |
| B3 | 0.965 |
| B4 | 1.25 |
| B5 | 0.84 |
| B6 | 0.5 |
| B7 | 1.29 |
| B8 | 1.44 |
| B9 | 0.563 |
| B10 | 1.23 |
| B11 | 2.98 |
| B12 | 1.23 |
| B13 | 1.24 |
| B14 | 2.91 |
